# Results published in PubChem BioAssay AID1508624 (National Center for Advancing Translational Sciences (NCATS), 2021).
# Hit rate of the full screen: of about 48,000 compounds, about 120 (0.25%) were called active. Another 4% or so got no clear call; they are omitted. Calls follow the shape of the dose curve; as a rule, active = well fitted activation curve with a large enough effect; inconclusive = small, poorly fitted or top-dose-only effect, or another doubt; inactive = no such curve, though single readings can be large or run the other way. The list shows a part of the results.
# Experiment: Primary qHTS for Identification of Small Molecule Activators of Huntingtin-Antisense Promoter Activity; also: nearly all actives have a fitted effect of over 55% in size
# Details: HEK293 HTT-AS promoter firefly luciferase reporter (activity 0% = vehicle and -100% = no light), 24 h; series mostly up to 57.5 µM; activity change, positive = activation: at the top concentration
# In short: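 Luminescence was read after Dual-Glo reagent and a 10 min room-temperature incubation. Values were normalized to vehicle (0% activity) and zero RLU (-100% activity). Reporter HEK293 cells had been exposed to compounds (up to 57.5 uM final) for 24 h.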
row,SMILES,"activity change, positive = activation"
1,COc1ccccc1CNS(=O)(=O)c1c(C)nc2sc(C)cn2c1=O,inactive: -5.86%
2,O=C(O)c1ccc2c(c1)N(Cc1ccc(F)cc1)C(=O)c1ccccc1S2=O (centres undefined),inactive: -26.6%
3,Cc1cc(NC(=O)c2cc(-c3ccc(F)cc3)on2)nn1Cc1ccc(Cl)cc1,inactive: -36%
4,Cc1ccc2c(CC(=O)Nc3ccc(S(=O)(=O)N4CCCC(C)C4)cc3)coc2c1 (centres undefined),inactive: -11.2%
5,CC1CCN(S(=O)(=O)c2ccc3c(c2)N(CC(=O)NCCN(C)C)C(=O)CS3)CC1,inactive: -1.45%
6,O=C(NCCc1ccccc1)c1ccc2c(c1)CCN2S(=O)(=O)c1ccc(Cl)cc1,inactive: -17.7%
7,COC(=O)c1cc(NC(=O)Cn2ncc3c([nH]c4ccccc43)c2=O)cc(C(=O)OC)c1,inactive: -18%
8,O=C(Cn1c(=O)c2cccn2c2ccc(F)cc21)Nc1cccc(F)c1,inactive: -28.5%
9,CCCCN(C)C(=O)C1CCC(Cn2c(=O)[nH]c3ccsc3c2=O)CC1 (centres undefined),inactive: -8.33%
10,OC(c1ccccc1)c1nc2ccccc2n1Cc1c(F)cccc1Cl (centres undefined),inactive: -18.4%
11,Cc1oc2ncnc(N3CCOCC3)c2c1C(=O)Nc1ccc(Br)cc1F,inactive: -18.8%
12,Fc1ccc(-n2nc(-c3ccccc3)c3cnc4ccccc4c32)cc1Cl,inactive: -2.01%
13,COC(=O)c1scc(-c2ccccc2)c1S(=O)(=O)Nc1ccc(C)c(Cl)c1,inactive: -39%
14,CCOc1ccc(NC(=O)c2c(NCc3cccs3)sc3c2CCCCC3)cc1,inactive: 2.83%
15,OC[C@@H](O)[C@H](O)[C@H](O)[C@@H](O)CO,inactive
16,COc1ccc(C2C=C(c3ccccc3)Nc3nc(NC(=O)/C=C/c4ccccc4OC)nn32)cc1 (centres undefined),inactive: -21.5%
17,Cc1cccc(OCC(=O)N(Cc2ccc(N(C)C)cc2)Cc2ccco2)c1C,inactive: -38.9%
18,Cc1ccnc2nc(NC(=O)c3ccccc3Cl)nn12,inactive: 20.2%
19,Cc1cccc(N(CC(=O)N(C)Cc2ccccc2)S(=O)(=O)c2ccccc2)c1C,inactive: -17.1%
20,CCC(=O)N1CCc2cc(Br)cc(S(=O)(=O)N3CCCC(C(=O)Nc4ccc(OC)cc4OC)C3)c21 (centres undefined),inactive: -10.7%
21,CCc1ccc(S(=O)(=O)c2nnn3c2nc(NC(C)C)c2cc(Cl)ccc23)cc1,inactive: -4.93%
22,COc1cc(N2CCC(N3CCN(C)CC3)CC2)ccc1Nc1ncc(Cl)c(Nc2ccccc2S(=O)(=O)C(C)C)n1,inactive: -43.7%
23,O=C(NCC1CCCCN1)c1cc(OCC(F)(F)F)ccc1OCC(F)(F)F (centres undefined),inactive
24,CC12CN3CC(c4ccccc4)(CN(C1)C3c1ccc(Cl)cc1)C2=O (centres undefined),inactive: 1.05%
25,CC(=O)c1cc(-c2ccccc2)n(CCC(=O)NC2CCCCC2)c1C,inactive: -26.6%

row,SMILES,"activity change, positive = activation"
1,CC1CCc2cc(F)cc3c(=O)c(C(=O)O)cn1c23 (centres undefined),inactive: -3.46%
2,COc1ccccc1CNC(=O)c1ccc(CS(=O)c2ccccc2Cl)o1 (centres undefined),inactive: -26.4%
3,O=C(NCCc1ccc(Cl)cc1)c1ccc(CSCc2ccc(Cl)cc2)o1,inactive: -23.5%
4,Clc1ccccc1-c1nnc(SCc2nc(-c3ccccc3)no2)n1-c1ccccc1,inactive: -33.7%
5,CCOc1ccc(NC(=O)CCC(=O)N2CCSc3ccccc32)cc1,inactive: -20.2%
6,CCc1ccccc1NC(=O)Cn1c(=O)n(CCc2ccccc2)c(=O)c2ccccc21,inactive: -15.3%
7,CCCC(=O)n1nc(-c2cccnc2)nc1NCc1ccccc1,inactive: 6.58%
8,COc1ccc(N2CCN(C(=O)Nc3ccccc3Cl)CC2)cc1,inactive: -3%
9,COc1ccc(Cn2c(CCC(=O)Nc3ccc(OC)c(Cl)c3)nc3cccnc32)cc1,inactive: -28.3%
10,COc1ccc(NS(=O)(=O)c2c(C)nc3scc(C)n3c2=O)cc1,inactive: -17.4%
11,O=C(Nc1ccc2nc(SCC(=O)N3CCOCC3)sc2c1)c1cccc(F)c1,inactive: -13.7%
12,COc1cccc(NC(=O)CSC2=Nc3ccccc3C3=NC(CC(=O)NCc4ccccc4OC)C(=O)N23)c1 (centres undefined),inactive: -12.4%
13,CCCCNC(=O)CCSc1nc(-c2ccc3c(c2)OCO3)cc(C(F)(F)F)n1,inactive: -5.09%
14,O=c1oc2ccc(Cl)cc2cc1-c1cn2c(n1)sc1ccccc12,inactive: -21%
15,CCOC(=O)N1CCN(S(=O)(=O)N2CCCC(C(=O)NCc3ccc(OC)cc3OC)C2)CC1 (centres undefined),inactive: -15.9%
16,Cn1c(C(=O)N2CCC(C(=O)N3CCN(c4ccccc4)CC3)CC2)cc2sccc21,inactive: -20.6%
17,Cc1nnc(N2CCN(c3cccc(C(F)(F)F)c3)CC2)c2c1nnn2Cc1ccccc1,inactive: -16.4%
18,Cc1ccc(CNC(=O)c2c[nH]n3c(=O)c(Cc4ccc(F)cc4Cl)c(C)nc23)cc1,inactive: -32.7%
19,COc1ccc(N2Cc3cccc(C(=O)Nc4cccc(F)c4)c3C2=O)cc1,inactive: 4.04%
20,Cc1noc2ncnc(NCc3ccc(Cl)cc3)c12,inactive: -45.3%
21,CN(C)c1ccc(C(=O)Nc2ccc(-c3nc4ccccc4o3)cc2)cc1,inactive: 12.1%
22,Cc1cc(NC(=O)C2CCCN(S(=O)(=O)c3cn(C)cn3)C2)ccc1Br (centres undefined),inactive: -10.4%
23,CCOc1ccc(CC(=O)Nc2c(C(=O)c3ccc(F)cc3)oc3ccc(Cl)cc23)cc1OCC,inactive: 3.04%
24,Cc1cc(C)cc(NC(=O)N2CCC(N3CCN(Cc4ccccc4)C(=O)C3=O)CC2)c1,inactive: 0.261%
